Data taken from PMC4336329 (PLoS ONE, 2015).
Among all 310,000 compounds or so, about 2,200 (0.71%) showed an effect of 50% or more. The effect is printed as a negative number. Some of the results follow.

target: human ether-à-go-go-related gene (hERG) potassium channel (human, UniProt Q12809); assay: primary screen, population patch clamp on CHO cells stably expressing hERG
Sequence (Q12809 whole entry, looked up): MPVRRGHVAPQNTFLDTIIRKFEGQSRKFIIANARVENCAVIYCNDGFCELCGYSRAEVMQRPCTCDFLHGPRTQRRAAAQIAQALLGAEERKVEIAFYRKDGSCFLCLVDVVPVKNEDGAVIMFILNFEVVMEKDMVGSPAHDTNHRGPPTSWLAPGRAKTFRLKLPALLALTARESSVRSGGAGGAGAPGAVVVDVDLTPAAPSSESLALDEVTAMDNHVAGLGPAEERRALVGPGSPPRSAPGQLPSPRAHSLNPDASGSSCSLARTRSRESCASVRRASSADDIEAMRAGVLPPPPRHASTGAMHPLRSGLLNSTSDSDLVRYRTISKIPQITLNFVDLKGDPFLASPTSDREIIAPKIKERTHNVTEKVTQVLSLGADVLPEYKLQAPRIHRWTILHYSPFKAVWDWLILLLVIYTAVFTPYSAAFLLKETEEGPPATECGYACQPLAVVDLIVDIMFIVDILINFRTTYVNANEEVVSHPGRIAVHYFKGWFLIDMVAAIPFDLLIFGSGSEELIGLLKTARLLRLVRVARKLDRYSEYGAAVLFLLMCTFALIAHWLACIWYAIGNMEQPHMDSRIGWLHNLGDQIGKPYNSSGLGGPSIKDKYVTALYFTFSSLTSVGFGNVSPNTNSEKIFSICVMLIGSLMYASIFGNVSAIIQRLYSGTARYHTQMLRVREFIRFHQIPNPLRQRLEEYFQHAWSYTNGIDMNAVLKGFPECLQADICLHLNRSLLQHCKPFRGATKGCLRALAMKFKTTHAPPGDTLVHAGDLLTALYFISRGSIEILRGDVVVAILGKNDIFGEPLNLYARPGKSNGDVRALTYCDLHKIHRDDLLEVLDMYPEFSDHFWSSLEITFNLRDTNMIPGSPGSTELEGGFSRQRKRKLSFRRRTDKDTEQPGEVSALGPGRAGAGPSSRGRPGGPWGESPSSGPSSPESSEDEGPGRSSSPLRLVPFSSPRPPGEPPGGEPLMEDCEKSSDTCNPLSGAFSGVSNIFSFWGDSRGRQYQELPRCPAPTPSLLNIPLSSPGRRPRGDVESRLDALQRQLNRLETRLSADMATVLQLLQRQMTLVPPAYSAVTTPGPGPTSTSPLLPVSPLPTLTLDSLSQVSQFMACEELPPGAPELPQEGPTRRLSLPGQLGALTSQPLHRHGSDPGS

Row | SMILES | hERG current change (%, negative = inhibition) at 1uM
1 | O=C(COC(=O)C12CC3CC(CC(C3)C1)C2)Nc1ncc(Cl)cc1Cl | 19.7%
2 | Brc1ccc2ncnc(NCc3ccccc3)c2c1 | 6.35%
3 | Cc1cc(C)cc(N(CC(=O)N2CCn3c2nc2ccccc23)S(=O)(=O)c2c(C)noc2C)c1 | 9.56%
4 | Cc1ccc(C(CC(N)=O)c2ccco2)cc1 (stereo not drawn) | -1.77%
5 | CC(O)c1nc(C(C)O)n(CC(=O)c2ccccc2)n1 (stereo not drawn) | 19.8%
6 | O=C(COC(=O)CN1C(=O)c2ccccc2C1=O)NC1CCCC1 | 21.7%
7 | CCCCN(CCCNC(=O)c1ccc2nc(N3CCOCC3)sc2c1)Cc1ccccc1 | -29%
8 | C=CCSc1nc2ccccc2n2cnnc12 | 10.1%
9 | NC(=O)CN1C(=O)NC2(CCCc3sccc32)C1=O (stereo not drawn) | 17%
10 | COc1ccc(S(=O)(=O)N2CCCC(N(C)CCc3ccccc3)C2)cc1OC (stereo not drawn) | -26.5%
11 | Cc1ccc(N2CC(C(=O)NCCS(=O)(=O)N3CCN(c4ccccc4)CC3)CC2=O)cc1 (stereo not drawn) | 16.3%
12 | CCOc1ccc(C(=O)NCC(=O)OCC(=O)N2C(C)CCCC2C)cc1 (stereo not drawn) | 10.4%
13 | Cc1[nH]n(-c2ccccc2)c(=O)c1C=Nc1ccc2[nH]c(=O)[nH]c2c1 | 12.3%
14 | Cc1csc2c(=O)[nH]cnc12 | 7.61%
15 | Cc1ccc(C(=O)Nc2ccccc2[N+](=O)[O-])cc1S(=O)(=O)N1CCOCC1 | 9.54%
16 | CCOc1ccccc1-c1nc(CN2CCN(C(=O)c3ccco3)CC2)c(C)o1 | 9.83%
17 | Cn1c(-c2ccc(F)cc2)cnc1NCc1ccc(C#N)cc1 | -22.9%
18 | N#Cc1c(NC(=O)CSc2nnnn2C2CCCCC2)sc2c1CCCC2 | -5.78%
19 | Cc1ccccc1OCC(=O)NCC(=O)N/N=C/c1cccc([N+](=O)[O-])c1 | 9.82%
20 | CCOC(=O)N1CCC(NC(=O)c2cc3c(-c4ccc(OC)c(OC)c4)nn(C)c3s2)CC1 | 12.3%
21 | Cc1cc(NC(=O)CCCN2C(=O)/C(=C/c3ccccc3Cl)SC2=S)no1 | -1.02%
22 | COc1ccc(NC(=O)c2[nH]ncc2[N+](=O)[O-])cc1 | 12.2%
23 | O=C(CNS(=O)(=O)c1ccc(Br)s1)NC1CCCc2ccccc21 (stereo not drawn) | 4.83%

Row | SMILES | hERG current change (%, negative = inhibition) at 1uM
24 | O=C(Nc1ccon1)c1ccc(S(=O)(=O)N2CCCCCC2)cc1 | 12.1%
25 | Clc1ccc(-n2nnnc2SCc2c(-c3ccccc3)nc3sccn23)cc1 | 7.74%
26 | Cc1ccc(-n2nc3c(=O)n(CC(=O)NCc4cccs4)nc(C)c3c2C)cc1 | 13%
27 | Oc1ccc2ccc3cccc[n+]3c2c1.[I-] | 19.3%
28 | COc1cccc(CN(C)CC(=O)Nc2ccccc2C(=O)Nc2ccccc2)c1 | 9.94%
29 | COc1ccc(CNC(=O)CCN2C(=O)c3ccncc3C2=O)cc1OC | 12.5%
30 | O=C(NCc1cccnc1)C(=O)Nc1cc2c3c(c1)CC(=O)N3CCC2 | 9.67%
31 | CC(=O)c1c(C)n([O-])c2cc(F)c(F)cc2[n+]1=O | 14.1%
32 | CS(=O)(=O)Nc1cc2c3c(c1)CCC(=O)N3CCC2 | 23.8%
33 | Cc1c(/C=C(\CC(=O)O)c2nc3ccccc3s2)cc(C#N)n1C | 13.8%
34 | CCn1c(SCCN2CCOCC2)nc2c1c(=O)n(C)c(=O)n2C | 18.2%
35 | CCOc1ccccc1/C=C(\C#N)C1=CCCC1 | 16%
36 | COc1cc(SC)ccc1C(=O)Nc1cccc(C)n1 | 2.34%
37 | CCOc1ccc(NC(=O)NNC(=O)c2ccc(Cl)cc2Cl)cc1 | 11%
38 | Cc1ccc(C)c(OCC(O)CN2CCN(CCN3C(=O)c4cccc5cccc(c45)C3=O)CC2)c1.Cl (stereo not drawn) | 13.5%
39 | CCn1c(NC(=O)c2cccs2)nc2ccccc21 | 3.61%
40 | Cc1onc(-c2ccccc2Cl)c1C(=O)OCC(=O)c1ccccc1 | 5.74%
41 | O=C(CN1CCN(S(=O)(=O)c2ccccc2)CC1)NC1CC1 | 22.8%
42 | O=C(Nc1ccc2nc(C3CC3)n(Cc3ccc(F)cc3)c(=O)c2c1)c1ccco1 | 8.35%
43 | CCN(CC)S(=O)(=O)c1cc(NC(=O)NCCCl)ccc1C | 3.83%
44 | CC(CC(=O)NNC(=O)c1cccc(Cl)c1)c1ccccc1 (stereo not drawn) | 10.8%
45 | c1ccc(-c2nc(-n3nc4ccccc4n3)nc3ccccc23)cc1 | 9.55%
46 | O=c1[nH]c2cc3c(cc2cc1C(c1nnnn1CC1CCCO1)N1CCCCCC1)OCCO3 (stereo not drawn) | 2.29%

Row | SMILES | hERG current change (%, negative = inhibition) at 1uM
47 | Cc1sc2nc(C3CC3)nc(SCC(=O)N3CC(=O)Nc4ccccc43)c2c1C | 11.3%
48 | CC(C)Oc1ccc(S(=O)(=O)N2CCCCC2)cc1NC(=O)CN1CCCC1c1cccs1 (stereo not drawn) | 13.2%
49 | CCC(=O)c1ccc(OCC(=O)OCC(=O)N2CCCc3ccccc32)cc1 | 16.2%
50 | Cc1ccc(C)c(N(CC(=O)NC(C)(C)C)C(=O)CCC(=O)Nc2nccs2)c1 | 17.9%
51 | COc1ccc2[nH]c(C)c(CCN(Cc3cccs3)C(=S)Nc3ccc(F)cc3)c2c1 | 6.92%
52 | COc1ccc2c(c1)C1=C(CC2)C(c2ccc(C)cc2)NC(=S)N1 (stereo not drawn) | 6.13%
53 | COCCNS(=O)(=O)c1ccc2c(c1)C(=NO)c1cc(S(=O)(=O)NCCOC)ccc1-2 | 11%
54 | COc1ccccc1N1CCN(C2CCCCC2NS(=O)(=O)c2ccc(Cl)cc2)CC1 (stereo not drawn) | 7.26%
55 | CCN1C(=O)N[C@@H](c2cccs2)C(C(C)=O)=C1C | 13.3%
56 | CCNc1nc(NCC)n2c(SCC(=O)N3CC4(C)CC3CC(C)(C)C4)nnc2n1 (stereo not drawn) | 10.3%
57 | COC(=O)c1ccc2c(=O)n(CCCCCC(=O)O)c(=O)[nH]c2c1 | 3.98%
58 | CN(C)/C=C/C(=O)c1ccc(Br)s1 | 13.2%
59 | COC(=O)CSc1nc(C)cc(C)n1 | 9.24%
60 | CCN(CC)S(=O)(=O)c1cc(C(=O)OC)ccc1Cl | 17%
61 | Cc1oc(-c2ccc(Cl)cc2)nc1CS(=O)CC(=O)NCc1cccs1 (stereo not drawn) | -3.11%
62 | O=C(COC(=O)c1ccc(F)cc1F)Nc1ccc2[nH]c(=O)[nH]c2c1 | 30.7%
63 | COc1ccc(CNC(=O)C2CCN(c3nn4c(=O)cc(C)nc4s3)CC2)cc1 | 20.3%
64 | CC(=O)Nc1ccc(C(=O)Nc2cc(C)on2)cc1 | 18.2%
65 | CC1CN(C(=S)NC(=O)c2cccc([N+](=O)[O-])c2)CC(C)O1 (stereo not drawn) | 12.2%
66 | COc1ccccc1-n1c(SCC(N)=O)nc2sc3c(c2c1=O)CCC3 | 4.03%
67 | O=C(N/N=C/c1cccnc1)C(=O)N1CCCCCC1 | 11.8%
68 | COc1ccc(C(=O)Nc2ccc(C3CC3(Cl)Cl)cc2)cc1 (stereo not drawn) | 14.2%
69 | Cc1ccc(-n2nc3cc(C)c(NC(=S)NC(=O)/C=C/c4ccco4)cc3n2)cc1 | 14.7%

Row | SMILES | hERG current change (%, negative = inhibition) at 1uM
70 | c1ccc2c(c1)OCCOCCOCCOCCOCCOc1ccccc1OCCOCCOCCO2 | -8.98%
71 | COc1ccnc(Oc2ccc(F)cc2)c1C(=O)N/C=N/OCc1cccc(F)c1 | 4.83%
72 | Cc1cc(NC(=O)c2ccc(C#N)cc2)n(-c2ccccn2)n1 | -2.65%
73 | CC1CN(C(=O)COC(=O)c2cc(=O)c3ccccc3o2)CC(C)O1 (stereo not drawn) | 12.7%
74 | CCN(CC)c1ccc(NC(=O)CSc2nc3ccccc3c(=O)[nH]2)cc1 | 3.02%
75 | C[C@]12CCC(=O)C=C1CC[C@@H]1[C@@H]2CC[C@@]2(C)[C@H]1CC[C@@]21CCC(=O)O1 | 4.4%
76 | Cc1ccc(-c2nnc(C)c(N3CC(C)OC(C)C3)n2)cc1 (stereo not drawn) | 8.63%
77 | CSc1cccc(N2CC(C(=O)NCCC3=CCCCC3)CC2=O)c1 (stereo not drawn) | 17.4%
78 | Cc1ccc(CSc2nc3c(c(=O)[nH]c(=O)n3C)n2CCC(C)C)cc1 | 13.1%
79 | COCCSc1nnc(NC(=O)COC)s1 | 12.7%
80 | CCOC(=O)c1c(N)nn(C(=O)c2ccccc2F)c1-c1ccc(OC)cc1 | 7.45%
81 | Cc1ccc(C)c(OCCC(=O)OCC(=O)NCCNC(=O)COC(=O)CCOc2cc(C)ccc2C)c1 | 6.53%
82 | COC(=O)c1sc(S(=O)(=O)N2CC[NH+](CCO)CC2)c(C(=O)OC)c1C.[Cl-] | 8.37%
83 | COc1cccc(CNCCc2c[nH]c3ccccc23)c1OC.Cl | 7.49%
84 | COc1ccccc1C(=O)N1CCN(S(=O)(=O)c2ccccc2)CC1 | 5.19%
85 | CC1CCc2sc(C(=O)NNC(=S)NCC3CCCO3)cc2C1 (stereo not drawn) | 4.8%
86 | CC(C)(C)c1ccccc1NC(=O)c1ccco1 | 13.9%
87 | CCOc1ccc(/C(C)=N/NC(=O)Cn2nc([N+](=O)[O-])cc2C)cc1 | 11%
88 | CS(=O)(=O)N1CCc2cc(S(=O)(=O)Nc3ccc4c(c3)OCCO4)ccc21 | 5.43%
89 | C#CCn1c(-c2cccs2)nc2ccccc21 | 9.03%
90 | CCOC(=O)COc1ccc2c(c1)C(=O)CC(C)(c1cccnc1)O2 (stereo not drawn) | 14.5%
